{
  "source": "paper PMC12136788",
  "binders": {"B1": {"name": "chr11:5233990:5234213:-|CDS|ENSG00000223609|control|control|control (ssRNA)", "RNA": "GGGAGUUCUACAGUCCGACGAUCGAUGCUGUUAUGGGCAACCCUAAGGUGAAGGCUCAUGGCAAGAAGGUGCUAGGUGCCUUUAGUGAUGGCCUGGCUCACCUGGACAACCUCAAGGGCACUUUUUCUCAGCUGAGUGAGCUGCAACAGAGGAUUGAGCAUCA"}, "B2": {"name": "chr9:34086386:34088349:-|three_prime_utr|ENSG00000198876|control|control|control (ssRNA)", "RNA": "GGGAGUUCUACAGUCCGACGAUCCUCAGUUUCCUUGUUUCUUUUGAUUUUUUUUUUCCUAAUUGUGUGAGGCUCUUGUGUUUUAGUGGGAACACCAAAGUUUGCCUAUAGUUUAGGCACUUAAUAGGAAGAAGCUCUGUACAGCAACAGAGGAUUGAGCAUCA"}, "B3": {"name": "chr2:162011792:162011987:-|CDS|ENSG00000197635|control|control|control (ssRNA)", "RNA": "GGGAGUUCUACAGUCCGACGAUCACUGUCUUCAGACUGAACUGGGCCACUUACCUUGCAAGCACAGAAAACAUUAUAGUAGCUAGCUUUGAUGGCAGAGGAAGUGGUUACCAAGGAGAUAAGAUCAUGCAUGCAAUCAACAGACAACAGAGGAUUGAGCAUCA"}, "B4": {"name": "chr15:85746268:85746369:+|3pUTR|ENSG00000170776|msi1|FALSE|bound_elsewhere (ssRNA)", "RNA": "GGGAGUUCUACAGUCCGACGAUCUGUUUUAUUUAUUGUAUUUGUGUGUUUGUGUUUGUUUUUUUUUAAGGGUGAGCCAGGUCUAGCCCAACAGUCUAAACUAUCCAGUCAAUACCGAGUGAAGUGGCAGCCAGCACUGUUCACCAACAGAGGAUUGAGCAUCA"}, "B5": {"name": "ENSG00000070961:be:win_5501|3pUTR|ENSG00000070961|bound_else_gene|NA|bound_elsewhere_windowed (ssRNA)", "RNA": "GGGAGUUCUACAGUCCGACGAUCCAGUAAUCCUCUGCAGGUCUUAGAAACACAUUGGCUCUGUCAGCAUUUGUAAUUGUACAUUUAUUCAUCAGGUAUUUAUAGUGAAUCAUACUGUAAAAAAGAGGUAGCAUGAUAUGCUGGCAACAGAGGAUUGAGCAUCA"}, "B6": {"name": "chr11:113276125:113276317:+|3pUTR|ENSG00000149294|msi1|FALSE|unique (ssRNA)", "RNA": "GGGAGUUCUACAGUCCGACGAUCGUCCGUGUAAAAUAGCUGCCUUUUAUUUUUUAAGGUAACAAAUACCACCUAGAGGUAGGUAGGAUCAUCCCACGCUUGCUUUAGCACAGGACAACUUUACAAAACAUGAUUGUUUACAGCCAACAGAGGAUUGAGCAUCA"}},
  "note": "Some of the results follow.",
  "data": [
    {"target": "T1, UNK ZnF1-6 (called full-length) (human, UniProt Q9C0B0 30-357)", "T1 sequence": "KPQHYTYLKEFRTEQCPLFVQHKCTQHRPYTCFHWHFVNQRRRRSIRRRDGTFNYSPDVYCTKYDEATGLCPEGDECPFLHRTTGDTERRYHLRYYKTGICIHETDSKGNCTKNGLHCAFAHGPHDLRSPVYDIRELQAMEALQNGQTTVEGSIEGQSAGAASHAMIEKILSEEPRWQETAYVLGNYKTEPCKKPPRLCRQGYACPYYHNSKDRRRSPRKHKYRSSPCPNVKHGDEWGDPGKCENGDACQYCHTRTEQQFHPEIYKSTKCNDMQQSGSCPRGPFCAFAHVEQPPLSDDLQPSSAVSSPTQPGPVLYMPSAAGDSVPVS", "experiment": "nsRBNS (natural sequence RNA bind-n-seq); RBNS binding buffer (assumed for nsRBNS): 25 mM Tris pH 7.5, 150 mM KCl, 3 mM MgCl2, 0.01% Triton X-100, 500 ug/ml BSA, 20 U/ml SUPERase-In, 4 C; UNK is unkempt and MSI1 is Musashi-1; names of the RNAs are library labels; protein concentration not given here; high values mean tight binding", "units": {"binding signal": "enrichment R"}, "values": [
      {"binder": "B1", "binding signal": 0.653},
      {"binder": "B2", "binding signal": 0.955},
      {"binder": "B3", "binding signal": 0.583},
      {"binder": "B4", "binding signal": 1.34},
      {"binder": "B5", "binding signal": 0.543},
      {"binder": "B6", "binding signal": 0.606}
    ]}
  ]
}
